Results are given in words; binding and its absence hold for the method and conditions named. Binding seen in cells or lysates may run through a third protein. Some binding calls cover weakened binding; strength is not graded here. Where a sequence is shown, tags or fusion partners need not be part of it.
Key:
FLAG-caspase-1 (human) = FLAG-caspase-1 (human) (UniProt P29466); assay: co-IP; both partners tagged and transfected in HeLa or HEK293T for 24 h (some primed with IFN-γ and/or transfected with LPS); lysis in 150 mM NaCl, 50 mM Tris pH 7.5, 1 mM EDTA, 0.5% NP40, 10% glycerol; anti-FLAG M2 or anti-Myc magnetic beads overnight at 4 °C; immunoblot or Coomassie
FLAG-caspase-11 (mouse) [1] = target: T1, FLAG-caspase-11 (mouse) (UniProt P70343); assay: as above
T1 sequence: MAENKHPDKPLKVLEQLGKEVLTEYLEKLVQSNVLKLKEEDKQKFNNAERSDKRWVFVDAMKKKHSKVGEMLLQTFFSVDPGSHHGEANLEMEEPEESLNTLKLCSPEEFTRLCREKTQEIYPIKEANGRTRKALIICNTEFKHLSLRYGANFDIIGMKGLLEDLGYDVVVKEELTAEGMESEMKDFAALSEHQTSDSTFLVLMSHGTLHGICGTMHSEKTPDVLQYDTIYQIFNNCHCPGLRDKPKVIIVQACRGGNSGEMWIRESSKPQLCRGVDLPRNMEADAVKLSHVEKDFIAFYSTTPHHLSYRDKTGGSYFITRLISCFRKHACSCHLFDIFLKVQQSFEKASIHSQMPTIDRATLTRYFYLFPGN

Amino acid sequences for entries named in this document (tags omitted).
UniProt P29466: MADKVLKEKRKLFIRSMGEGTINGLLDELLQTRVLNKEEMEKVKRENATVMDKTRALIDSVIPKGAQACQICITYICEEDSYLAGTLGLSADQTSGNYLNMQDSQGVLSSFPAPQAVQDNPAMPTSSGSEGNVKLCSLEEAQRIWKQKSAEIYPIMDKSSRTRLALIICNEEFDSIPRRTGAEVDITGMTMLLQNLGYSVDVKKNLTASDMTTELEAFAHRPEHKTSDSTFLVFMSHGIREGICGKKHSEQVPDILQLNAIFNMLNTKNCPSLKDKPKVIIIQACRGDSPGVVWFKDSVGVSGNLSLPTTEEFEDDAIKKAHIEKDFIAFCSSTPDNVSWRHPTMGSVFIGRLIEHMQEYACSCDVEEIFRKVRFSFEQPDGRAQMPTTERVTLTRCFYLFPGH

FLAG-caspase-7 (human) = target: T2, FLAG-caspase-7 (human) (UniProt P55210); assay: as above
T2 sequence: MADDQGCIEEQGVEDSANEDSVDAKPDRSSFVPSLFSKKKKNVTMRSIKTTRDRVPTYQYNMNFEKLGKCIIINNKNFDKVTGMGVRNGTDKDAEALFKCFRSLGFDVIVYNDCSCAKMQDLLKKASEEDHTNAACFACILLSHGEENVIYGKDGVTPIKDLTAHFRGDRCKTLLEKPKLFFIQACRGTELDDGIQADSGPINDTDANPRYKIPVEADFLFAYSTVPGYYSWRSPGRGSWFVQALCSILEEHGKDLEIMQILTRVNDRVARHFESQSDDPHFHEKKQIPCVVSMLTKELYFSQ

FLAG-caspase-2 (human) = target: T3, FLAG-caspase-2 (human) (UniProt P42575); assay: as above
T3 sequence: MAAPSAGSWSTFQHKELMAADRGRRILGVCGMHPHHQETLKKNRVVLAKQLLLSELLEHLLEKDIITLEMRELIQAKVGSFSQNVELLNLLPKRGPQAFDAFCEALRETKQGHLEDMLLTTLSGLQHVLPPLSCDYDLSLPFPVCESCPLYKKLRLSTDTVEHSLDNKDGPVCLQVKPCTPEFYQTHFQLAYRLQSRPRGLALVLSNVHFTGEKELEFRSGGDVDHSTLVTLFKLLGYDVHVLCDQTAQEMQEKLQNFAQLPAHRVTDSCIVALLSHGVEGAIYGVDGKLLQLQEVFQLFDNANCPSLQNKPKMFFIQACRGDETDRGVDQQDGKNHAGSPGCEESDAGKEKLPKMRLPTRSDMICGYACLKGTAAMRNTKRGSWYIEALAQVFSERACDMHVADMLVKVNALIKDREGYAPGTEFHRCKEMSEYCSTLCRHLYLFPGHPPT

FLAG-caspase-11 (mouse) [2] = target: T1, FLAG-caspase-11 (mouse); assay: condition: only beads-bound immunoprecipitate digested with recombinant USP5 (removes unanchored polyUb); co-IP; FLAG-caspase-4/11 immunoprecipitates with Myc-UBXN1, beads-bound fraction digested with recombinant USP5 (IsoT) to remove unanchored polyUb, then immunoblot

binding (FLAG-caspase-1 (human)): no binding
binding (FLAG-caspase-11 (mouse) [1]): binds
binding (FLAG-caspase-7 (human)): no binding
binding (FLAG-caspase-2 (human)): no binding
binding (FLAG-caspase-11 (mouse) [2]): no binding
B1: Myc-UBXN1 (protein, UniProt Q04323 1-297)
chain: MAELTALESLIEMGFPRGRAEKALALTGNQGIEAAMDWLMEHEDDPDVDEPLETPLGHILGREPTSSEQGGLEGSGSAAGEGKPALSEEERQEQTKRMLELVAQKQREREEREEREALERERQRRRQGQELSAARQRLQEDEMRRAAEERRREKAEELAARQRVREKIERDKAERAKKYGGSVGSQPPPVAPEPGPVPSSPSQEPPTKREYDQCRIQVRLPDGTSLTQTFRAREQLAAVRLYVELHRGEELGGGQDPVQLLSGFPRRAFSEADMERPLQELGLVPSAVLIVAKKCPS

From publication PMC13532744
